Here are results for eight molecules from the antibiotic and cytotoxicity screens of Wong et al. (2023).

The list shows a part of the results.

The test system of the assay is S. aureus RN4220. The experiment in a line: growth inhibition call (relative growth <= 0.2). The following applies: 50 µM.
Turning to `CN1CC[C@]2(CCCO2)C1`, the growth inhibition call was “inactive”.

On to `O=C(O)C[C@@H]1CC[C@H]2NC[C@H](O)COC[C@@H]2O1`, for which the growth inhibition call was “inactive”.

Regarding `COc1ccc(C(=O)N2CCCC2=O)cc1`, the growth inhibition call was “inactive”.

In the case of `NC[C@@H]1CCCN2CCCC[C@H]12`, the growth inhibition call was “inactive”.

Turning to `COC(=O)C[C@H]1CC[C@@H]2NC[C@H](O)COC[C@H]2O1`, the growth inhibition call is “inactive”.

On to `CN(C)C(=O)Oc1ccc[n+](C)c1`, for which the growth inhibition call was “inactive”.

As to `COC(=O)C(c1ccccc1)C1CCCCN1.Cl` (stereo not drawn), the growth inhibition call was “inactive”.

On to `CC(=O)OC1C2CCC3C(C)(O)C4CC(O)C(C)(C)C4(O)C(O)CC13CC2(C)O` (stereo not drawn), for which the growth inhibition call was “inactive”.
